Laboratory results: paper PMC4518479, “Rad51 Paralogs Remodel Pre-synaptic Rad51 Filaments to Stimulate Homologous Recombination” (Cell, 2015)
Residue numbers refer to the chain shown, from its start. Results are given in words; binding and its absence hold for the method and conditions named. Some entries that bind do so weakly or less than the wild type. Sequences can lack the tags named with a protein.

Legend:
[1] = target: T1, RIP-1 (RFS-1 interacting protein; yeast two-hybrid fusion) (C. elegans) (UniProt Q21621); test: two-hybrid; reciprocal yeast two-hybrid; read-out beta-galactosidase expression and survival on 3-aminotriazole (3-AT) without histidine
T1 sequence: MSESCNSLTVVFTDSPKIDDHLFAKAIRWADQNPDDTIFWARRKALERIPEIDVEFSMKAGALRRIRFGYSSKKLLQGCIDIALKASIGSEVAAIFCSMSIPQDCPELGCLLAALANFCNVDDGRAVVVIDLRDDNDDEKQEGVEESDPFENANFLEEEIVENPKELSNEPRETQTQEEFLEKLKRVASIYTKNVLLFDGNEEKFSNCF

[2] = target: T2, RIP-1 V128E (yeast two-hybrid fusion) (C. elegans) (UniProt Q21621); test: as above
T2 sequence: T1 sequence with V128E

B1: RFS-1 (yeast two-hybrid fusion) (protein, UniProt P34348 1-245)
chain: MDPSENVFKYETAYDLLVRLGAERLFLRTCLSILDPVLELHPGKCYEIDGDLGVGKTQICYSFAAKFLQTKKTAKMGWIGATPLRTDHLLLHIEHFGNQTNEDILDRIVCKRVEKIAELQDSLTRFLDTINLQLVIVENIDAILHDTVYHKEMGRSMQSDVVERIRKLTKLEITVILTNHITHWRGYPAPALGAFWSSQINNRFFIEKRNDDSDIRIVSAMKGEQDDGMNRIEFKIGDRGLKAVE
- binding [1]: binds
- binding [2]: no binding
